# Experimental data published in the supplement of paper PMC3722116.
# Key:
# lumefantrine [1] = compound: T1, CCCCN(CCCC)CC(O)c1cc(Cl)cc2c1-c1ccc(Cl)cc1/C2=C/c1ccc(Cl)cc1 [lumefantrine]
# Method: (§1)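 Hypoxanthine uptake by fresh isolates, duplicate serial dilutions, 24 h of drug plus 18 h after the label; sigmoid fit per isolate.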
# chloroquine [2] = compound: T2, CCN(CC)CCCC(C)Nc1ccnc2cc(Cl)ccc12 [chloroquine]
# Method: as §1
# mefloquine [3] = compound: T3, OC(c1cc(C(F)(F)F)nc2c(C(F)(F)F)cccc12)C1CCCCN1 [mefloquine]
# Method: as §1
# artesunate [4] = compound: T4, C[C@H]1[C@H](OC(=O)CCC(=O)O)O[C@@H]2O[C@@]3(C)CC[C@H]4[C@H](C)CC[C@@H]1[C@@]24OO3 [artesunate]
# Method: as §1
# lumefantrine [5] = compound: T1, lumefantrine; assay: slope of the dose-response curve (dimensionless); higher = steeper concentration-effect curve
# Method: as §1
# chloroquine [6] = compound: T2, chloroquine; assay: as above
# Method: as §1
# mefloquine [7] = compound: T3, mefloquine; assay: as above
# Method: as §1
# artesunate [8] = compound: T4, artesunate; assay: as above
# Method: as §1
Test System,EC50 of parasite growth (lumefantrine [1]) [µg/mL],EC50 of parasite growth (chloroquine [2]) [µg/mL],EC50 of parasite growth (mefloquine [3]) [µg/mL],EC50 of parasite growth (artesunate [4]) [µg/mL],slope (lumefantrine [5]),slope (chloroquine [6]),slope (mefloquine [7]),slope (artesunate [8])
"Plasmodium falciparum isolate 399 (pfmdr1 allele: 86N, 1042N, pfmdr1 copies: 1)",0.0281,0.0723,0.0186,0.000559,2.8,4.16,2.5,13.1
"Plasmodium falciparum isolate 354 (pfmdr1 allele: 86N, 1042N, pfmdr1 copies: 1)",0.0198,0.315,0.0177,0.000596,2.5,2.69,1.83,4.37
"Plasmodium falciparum isolate 260 (pfmdr1 allele: 86N, 1042N, pfmdr1 copies: 1)",0.0202,0.162,0.04,0.00337,1.76,3.88,2.82,5.37
"Plasmodium falciparum isolate 147 (pfmdr1 allele: 86N, 1042N, pfmdr1 copies: 1)",0.0129,0.0586,0.0231,0.000553,1.92,2.89,2.72,6.33
"Plasmodium falciparum isolate 245 (pfmdr1 allele: 86N, 1042N, pfmdr1 copies: 1)",0.00952,0.0734,0.0144,0.000327,1.82,3.44,2.25,5.37
"Plasmodium falciparum isolate 258 (pfmdr1 allele: 86N, 1042N, pfmdr1 copies: 1)",0.0205,0.0798,0.032,0.00314,2.31,5.33,1.77,5.82
"Plasmodium falciparum isolate 205 (pfmdr1 allele: 86N, 1042N, pfmdr1 copies: 1)",0.0507,0.183,0.0467,0.000677,1.96,9.94,3.15,6.63
"Plasmodium falciparum isolate 2 (pfmdr1 allele: 86N, 1042N, pfmdr1 copies: 1)",0.00797,0.0874,0.021,0.000857,1.81,9.73,1.6,9.99
"Plasmodium falciparum isolate 278 (pfmdr1 allele: 86N, 1042N, pfmdr1 copies: 1)",0.0165,0.257,0.0368,0.000727,1.09,4.74,1.44,3.09
"Plasmodium falciparum isolate 297 (pfmdr1 allele: 86N, 1042N, pfmdr1 copies: 1)",0.0148,0.0856,0.0102,0.000308,2.02,4.9,1.69,3.26
"Plasmodium falciparum isolate 314 (pfmdr1 allele: 86N, 1042N, pfmdr1 copies: 1)",0.00865,0.117,0.00379,0.000108,1.94,2.58,1.63,1.85
"Plasmodium falciparum isolate 404 (pfmdr1 allele: 1042D, pfmdr1 copies: 1)",0.0154,0.0803,0.00839,0.000557,2.68,4.47,2.82,4.79
"Plasmodium falciparum isolate 425 (pfmdr1 allele: 86N, 1042N, pfmdr1 copies: 2)",0.0528,0.181,0.0425,0.00268,4.08,3.2,2.84,4.28
"Plasmodium falciparum isolate 402 (pfmdr1 allele: 86N, 1042N, pfmdr1 copies: 1)",0.00634,0.166,0.0153,0.000612,2,5.55,2.2,5.13
"Plasmodium falciparum isolate 61 (pfmdr1 allele: 86Y, pfmdr1 copies: 1)",0.012,0.188,0.00738,0.000293,5.46,9.99,2.44,4.22
"Plasmodium falciparum isolate 380 (pfmdr1 allele: 86N, 1042N, pfmdr1 copies: 1)",0.028,0.216,0.0241,0.000674,2.08,5.78,2.02,5.24
"Plasmodium falciparum isolate 257 (pfmdr1 allele: 86N, 1042N, pfmdr1 copies: 1)",0.0117,0.118,0.0189,0.000761,2.08,3.41,2.05,5.08
"Plasmodium falciparum isolate 180 (pfmdr1 allele: 86N, 1042N, pfmdr1 copies: 2)",0.0238,0.155,0.058,0.000539,3.67,6.19,4.07,10
"Plasmodium falciparum isolate 252 (pfmdr1 allele: 86N, 1042N, pfmdr1 copies: 3)",0.0209,0.073,0.0699,0.00724,3.28,2.38,2.87,4.41
"Plasmodium falciparum isolate 446 (pfmdr1 allele: 86N, 1042N, pfmdr1 copies: 2)",0.0204,0.0673,0.0411,0.000484,2.81,4.3,2.89,7.27
"Plasmodium falciparum isolate 413 (pfmdr1 allele: 86N, 1042N, pfmdr1 copies: 2)",0.0146,0.133,0.0741,0.00115,2.12,3.32,2.84,6.33

Test System,EC50 of parasite growth (lumefantrine [1]) [µg/mL],EC50 of parasite growth (chloroquine [2]) [µg/mL],EC50 of parasite growth (mefloquine [3]) [µg/mL],EC50 of parasite growth (artesunate [4]) [µg/mL],slope (lumefantrine [5]),slope (chloroquine [6]),slope (mefloquine [7]),slope (artesunate [8])
"Plasmodium falciparum isolate 155 (pfmdr1 allele: 86N, 1042N, pfmdr1 copies: 1)",0.0134,0.134,0.0176,0.00047,2.02,3.21,2.34,4.34
"Plasmodium falciparum isolate 213 (pfmdr1 allele: 86N, 1042N, pfmdr1 copies: 1)",0.0072,0.163,0.0175,0.000322,1.77,3.56,2.03,4.16
"Plasmodium falciparum isolate 352 (pfmdr1 allele: 86N, 1042N, pfmdr1 copies: 2)",0.0132,0.0636,0.0261,0.0013,1.07,3.16,1.67,7.16
"Plasmodium falciparum isolate 434 (pfmdr1 allele: 86N, 1042N, pfmdr1 copies: 3)",0.048,0.0538,0.101,0.00221,1.8,2.19,3.68,5.84
"Plasmodium falciparum isolate 183 (pfmdr1 allele: 86N, 1042N, pfmdr1 copies: 2)",0.0335,0.101,0.0515,0.0033,2.13,3.05,2.95,6.67
"Plasmodium falciparum isolate 139 (pfmdr1 allele: 86N, 1042N, pfmdr1 copies: 1)",0.0291,0.168,0.0314,0.000711,2.17,3.98,2.43,6.65
"Plasmodium falciparum isolate 259 (pfmdr1 allele: 86N, 1042N, pfmdr1 copies: 3)",0.0145,0.158,0.0627,0.0014,2.58,3.27,3.06,7.81
"Plasmodium falciparum isolate 347 (pfmdr1 allele: 86N, 1042N, pfmdr1 copies: 1)",0.0188,0.113,0.0264,0.0011,2.14,3.08,2.33,5.67
"Plasmodium falciparum isolate 72 (pfmdr1 allele: 86N, 1042N, pfmdr1 copies: 1)",0.00556,0.0667,0.0131,0.000432,5.01,3.67,5.44,4.73
"Plasmodium falciparum isolate 307 (pfmdr1 allele: 86N, 1042N, pfmdr1 copies: 1)",0.0383,0.0829,0.0355,0.001,2.01,5.06,1.91,5.63
"Plasmodium falciparum isolate 73 (pfmdr1 allele: 86N, 1042N, pfmdr1 copies: 2)",0.0145,0.0506,0.0149,0.000431,2.37,2.91,1.85,4.86
"Plasmodium falciparum isolate 478 (pfmdr1 allele: 86N, 1042N, pfmdr1 copies: 1)",0.037,0.0688,0.0464,0.000745,5.7,3.67,2.89,8.06
"Plasmodium falciparum isolate 149 (pfmdr1 allele: 86N, 1042N, pfmdr1 copies: 2)",0.0281,0.0592,0.0528,0.000644,3.14,3.09,3.21,6.46
"Plasmodium falciparum isolate 138 (pfmdr1 allele: 86Y, pfmdr1 copies: 1)",0.0286,0.179,0.0183,0.00112,2.27,7.55,3.05,3.05
"Plasmodium falciparum isolate 170 (pfmdr1 allele: 1042D, pfmdr1 copies: 1)",0.00693,0.127,0.0131,0.00108,1.82,3.98,1.51,3.52
"Plasmodium falciparum isolate 318 (pfmdr1 allele: 86N, 1042N, pfmdr1 copies: 2)",0.231,0.0473,0.0555,0.0018,1.2,2.64,2.36,8.85
"Plasmodium falciparum isolate 215 (pfmdr1 allele: 86N, 1042N, pfmdr1 copies: 4)",0.0489,0.112,0.0934,0.00205,2.22,5.33,4.69,10
"Plasmodium falciparum isolate 4 (pfmdr1 allele: 86N, 1042N, pfmdr1 copies: 1)",0.00169,0.0376,0.00656,0.000249,0.97,1.73,1.63,1.54
"Plasmodium falciparum isolate 59 (pfmdr1 allele: 86N, 1042N, pfmdr1 copies: 1)",0.0136,0.154,0.0295,0.000766,2.07,3.55,3.22,4.52
"Plasmodium falciparum isolate 379 (pfmdr1 allele: 86N, 1042N, pfmdr1 copies: 1)",0.00194,0.167,0.00299,0.000276,1.47,3.08,2.51,2.4

# Growth of fresh clinical P. falciparum isolates by hypoxanthine uptake over 42 h; for most isolates 1.6-1,647 nM mefloquine, 0.044-87 nM artesunate, 10-10,256 nM chloroquine, 2.4-236 nM lumefantrine. EC50, lower = more sensitive; slope from the same fit, higher = steeper. No active / inactive call. Fits with a coefficient of variation above 100% are not listed here; 15-28% of fits exceed 15%. Isolates are numbered anew.
